Where “and” joins values, the source holds several entries; their conditions need not be identical. Equal values may be shown once. This list was built around the results that the source calls inconclusive (neither active nor inactive); the mix of calls is not that of the screen. Where the call is inconclusive, the potency comes from a doubtful curve fit. More than one record can exist for a structure, and the calls need not agree. Calls of active or inactive are those of the source. Calls come from the whole dose curve; as a rule, active = well fitted activation curve with a large enough effect in the repeat runs; inconclusive = weak or mixed curves; inactive = flat fitted curve, though single readings scatter.
Assay: A CellTox Green Cytotoxicity Assay to monitor cytotoxicity in HEK293 cells - 32 hour (AID 1224881); note: nearly all actives have a fitted effect of over 40% in size
Settings: CellTox Green fluorescence; series mostly up to 76.8 µM
How it was run: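 Fluorescence intensity, read at 0, 8, 16, 24, 32 and 40 h of compound treatment, reflected dye binding to DNA of dead HEK293 cells; compounds (23 nL, DMSO) were added 5 h after plating cells with reagent.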
Potency is the fitted concentration of half-maximal effect; tags give direction and shape of the fitted curve.

SMILES	Potency
CCN(CC)c1c([N+](=O)[O-])cc(C(F)(F)F)c(N)c1[N+](=O)[O-]	inconclusive: 61.6 µM [activator, single point]
C=CCOC(Cn1ccnc1)c1ccc(Cl)cc1Cl (stereo not drawn)	inconclusive: 61.6 µM [activator, partial curve, poor fit]
CC[N+]1(C)CCCC1	inconclusive: 55.1 µM [activator, single point]
C/C(=C\c1ccccc1)[N+](=O)[O-]	inconclusive: 9.77 µM [activator, single point]
CN(C)C(=S)[S-].CN(C)C(=S)[S-].[Cu+2]	active: 2.38 µM
CCCCCCCCCCCC[N+](C)(C)CCOc1ccccc1	active: 17.4 µM and active: 23.9 µM
CCOC(=O)c1ccccc1N	inconclusive: 38.9 µM [activator, partial curve]
N#CC(CCc1ccc(Cl)cc1)(Cn1cncn1)c1ccccc1 (stereo not drawn)	active: 54.9 µM
O=C(CCl)C(Cl)Cl	active: 27.8 µM
C[C@]12C/C(=C/O)C(=O)C[C@@H]1CC[C@@H]1[C@@H]2CC[C@@]2(C)[C@H]1CC[C@]2(C)O	active: 44.1 µM
Oc1c(Cl)c(Cl)cc(Cl)c1Cl	inconclusive: 42.5 µM [activator, partial curve]
CC(c1ccccc1)(c1ccc(O)cc1)c1ccc(O)cc1	inconclusive: 49 µM [activator, single point]
ClP(Cl)(Cl)(Cl)Cl	inconclusive: 55.3 µM [activator, single point]
Cc1c([N+](=O)[O-])cc2c(c1[N+](=O)[O-])C(C)(C)CC2(C)C	inconclusive: 61.6 µM [activator, single point]
C/C=C/c1ccc2c(c1)OCO2	inconclusive: 56 µM [activator, single point]

Assay: A CellTox Green Cytotoxicity Assay to monitor cytotoxicity in HepG2 cells - 32 hour (AID 1224883); note: nearly all actives have a fitted effect of over 50% in size
Settings: CellTox Green fluorescence; series mostly up to 76.8 µM
How it was run: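 Using 1536-well format, dye-containing HepG2 suspension was seeded, allowed 5 h at 37 C/5% CO2, dosed by pintool with compounds, positive and negative controls, and imaged for fluorescence across 40 h.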

SMILES	Potency
C=CCOC(Cn1ccnc1)c1ccc(Cl)cc1Cl (stereo not drawn)	active: 49.1 µM and active: 54.9 µM and inconclusive: 26.8 µM [activator, single point]
CC[N+]1(C)CCCC1	inconclusive: 56.3 µM [activator, single point]
C/C(=C\c1ccccc1)[N+](=O)[O-]	inconclusive: 43.6 µM [activator, partial curve, poor fit]
O=C(N[C@H](c1ccccc1)[C@@H]1CN2CCC1CC2)c1c(Cl)ccc(C(F)(F)F)c1Cl	inconclusive: 78.8 µM [activator, single point]
Clc1ccc(CO/N=C(\Cn2ccnc2)c2ccc(Cl)cc2Cl)c(Cl)c1	inconclusive: 26.8 µM [activator, single point]
N#CC(CCc1ccc(Cl)cc1)(Cn1cncn1)c1ccccc1 (stereo not drawn)	active: 21.9 µM
O=C(CCl)C(Cl)Cl	active: 55.5 µM
C[C@]12C/C(=C/O)C(=O)C[C@@H]1CC[C@@H]1[C@@H]2CC[C@@]2(C)[C@H]1CC[C@]2(C)O	inconclusive: 49.4 µM [activator, partial curve, poor fit] and inconclusive: 26.8 µM [activator, partial curve, poor fit]
CNC(C)Cc1ccccc1OC (stereo not drawn)	inactive
O=C(O)C(F)(F)C(F)(F)C(F)(F)C(F)(F)C(F)(F)C(F)(F)C(F)(F)C(F)(F)C(F)(F)C(F)(F)F	inconclusive: 20.7 µM [activator, single point]
ClP(Cl)(Cl)(Cl)Cl	inconclusive: 55.3 µM [activator, single point]
C[C@]12CCC(=O)C=C1CC[C@@H]1[C@@H]2CC[C@@]2(C)[C@H]1CC[C@]2(C)O	active: 22.1 µM and inconclusive: 23.9 µM [activator, single point]
O=C(CCl)c1ccccc1	inconclusive: 54.9 µM [activator, single point]

— PubChem BioAssay (Tox21)
